In the supplement of paper PMC3334620:
The full ranking holds about 33,000 sequences; the median of “E-score (-0.5 to 0.5)” is about -0.054, and the highest 2% start at about 0.35. This is one part of the list.

target: T1, Stb5 (UniProt P38699); assay: PBM E-score (8-mer binding enrichment) (E-score (-0.5 to 0.5)); higher = stronger / more preferred TF binding; most listed sequences are background and not binding sites; conditions: protein concentration: 200 nM; construct: GST-full length
T1 sequence: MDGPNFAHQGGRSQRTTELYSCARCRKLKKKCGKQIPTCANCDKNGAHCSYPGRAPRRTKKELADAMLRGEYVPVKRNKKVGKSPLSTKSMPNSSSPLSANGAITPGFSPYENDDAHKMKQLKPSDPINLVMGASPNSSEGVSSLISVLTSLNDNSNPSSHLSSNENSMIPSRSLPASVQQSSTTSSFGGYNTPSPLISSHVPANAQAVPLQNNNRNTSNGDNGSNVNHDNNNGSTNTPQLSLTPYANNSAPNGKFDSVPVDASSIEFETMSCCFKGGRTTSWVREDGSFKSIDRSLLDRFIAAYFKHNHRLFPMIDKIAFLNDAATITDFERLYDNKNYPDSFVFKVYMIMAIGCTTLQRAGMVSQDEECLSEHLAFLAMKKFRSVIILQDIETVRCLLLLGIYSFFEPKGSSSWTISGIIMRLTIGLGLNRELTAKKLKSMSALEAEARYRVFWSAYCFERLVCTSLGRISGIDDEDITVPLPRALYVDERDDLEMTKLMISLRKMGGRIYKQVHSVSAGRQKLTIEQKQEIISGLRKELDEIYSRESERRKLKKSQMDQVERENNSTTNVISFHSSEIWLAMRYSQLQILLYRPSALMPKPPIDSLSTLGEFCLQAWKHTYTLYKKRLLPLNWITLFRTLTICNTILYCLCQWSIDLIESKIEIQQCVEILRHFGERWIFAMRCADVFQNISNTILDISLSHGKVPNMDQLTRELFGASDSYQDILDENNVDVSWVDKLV
In short: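 Detection of bound protein used fluorescent anti-GST, with scans normalised by masliner. The proteins were GST-tagged yeast transcription factors applied at about 100-200 nM to universal all-10-mer Agilent arrays made double-stranded by primer extension. Each ungapped eight-base word, pooled with its reverse complement, was scored with an E-score from the Universal PBM Analysis Suite.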

| Sequence | PBM E-score |
| --- | --- |
| ACCGTGTA | -0.101 |
| TAAGCTGA | -0.0108 |
| CAATCCAC | -0.0417 |
| CTGAAGAA | -0.291 |
| CTCACCAC | -0.136 |
| TAACCTAA | -0.0712 |
| TCATATAA | -0.146 |
| ATCGAATA | -0.0287 |
| AGCTGCCT | -0.132 |
| CCACCAGA | -0.337 |
| TAAATTCA | -0.0238 |
| GTACATCA | 0.0592 |
| CTCTAGAA | -0.315 |
| GGGAGAGA | -0.307 |
| AGCTTTAG | -0.226 |
| CCTTGGGC | -0.0658 |
| ATACAAGC | 0.0419 |
| CGACTGGC | 0.152 |
| ACATGTGA | -0.136 |
| CTGTTGAC | -0.0838 |
| CAGGGTGG | -0.174 |
| ACTTTATA | 0.122 |
| CAAAATAA | -0.0195 |
| AGATACGC | -0.0289 |
| ACGTCCTC | -0.203 |

| Sequence | PBM E-score |
| --- | --- |
| ATTCTACC | 0.146 |
| GATGACCA | -0.0925 |
| CACATATC | 0.0209 |
| ATCTGAGA | -0.2 |
| ATTGACTC | -0.0558 |
| ATGTTCGA | -0.112 |
| GTCAGGGA | -0.111 |
| TACGGATA | 0.071 |
| GCTCGGTA | 0.176 |
| AGCATAAC | -0.11 |
| ATAACGTC | -0.0673 |
| GCTTGAAA | -0.11 |
| GCGCTTCC | -0.00015 |
| GCCCCAAA | 0.0255 |
| GGCAGACA | 0.0519 |
| TCGCTTCA | -0.158 |
| CTTTGTCA | -0.036 |
| ACCGCAAG | 0.265 |
| AGGAATGG | -0.299 |
| GATCATAC | 0.0167 |
| AGACTTCC | -0.178 |
| CGACCTAG | 0.0545 |
| AATACACC | 0.314 |
| CGGATTAC | -0.0316 |
| CACGCCTA | -0.169 |

| Sequence | PBM E-score |
| --- | --- |
| CCTAGAGC | 0.0866 |
| GGCTTTCA | -0.0306 |
| CGTTGGAG | 0.0782 |
| GTTTCACA | -0.106 |
| GACTGCCA | -0.106 |
| GCCGCCCA | 0.19 |
| ACGTGCCC | -0.0848 |
| ACGCACAA | -0.168 |
| AGTCAAAG | -0.171 |
| AATGAAGG | -0.0303 |
| CCTCGATA | 0.0491 |
| AACAAACG | 0.0203 |
| GCTTCCTA | -0.0337 |
| AGTCTGGA | 0.00288 |
| TCTCTACA | -0.177 |
| GCGGTCCC | 0.289 |
| ATGAAAGC | -0.0893 |
| AGGCACGA | -0.0317 |
| CAGAGAAC | -0.138 |
| TTAGGGAA | -0.144 |
| GCGCACAC | -0.108 |
| CGCAACGC | 0.0842 |
| ACAGTTTA | -0.158 |
| GGGGATAC | 0.27 |
| CAAGTCAC | -0.0834 |

| Sequence | PBM E-score |
| --- | --- |
| GAGCACCC | 0.0316 |
| CAGATTTC | -0.152 |
| AGAGCGTA | -0.0201 |
| CTTGTGCA | -0.134 |
| ACCCTACC | -0.177 |
| TACGATGA | -0.18 |
| CCTGTAGC | 0.102 |
| GCCTTAAC | -0.0803 |
| CTCTGGGC | -0.203 |
| AGGGGTAA | -0.249 |
| CGAGGCGC | 0.108 |
| AACACCGG | 0.474 |
| AACCGGGG | 0.29 |
| GACGCGCA | -0.043 |
| AATGACGC | -0.0314 |
| ATCGAGAG | -0.198 |
| AGTGAGCA | -0.241 |
| CGAACCGC | 0.0972 |
| TATCATAA | -0.101 |
| CGACGCGC | 0.182 |
| GACTAGTA | 0.0372 |
| ACCCCCCG | 0.204 |
| ACTATTTC | 0.0448 |
| ACAAGCTC | -0.0867 |
| CGAAGGAC | 0.0821 |

| Sequence | PBM E-score |
| --- | --- |
| GGCCAGCC | -0.151 |
| CACTGTCG | -0.0737 |
| AATCAGAA | -0.0204 |
| GGACTGAC | 0.0533 |
| AATTTGAG | -0.0983 |
| ATCTCCAT | 0.0527 |
| ATTTATTA | 0.0961 |
| TTTGAAAA | -0.105 |
| TGGACAAA | -0.00634 |
| CCACTGAC | -0.182 |
| CGTTGCAC | 0.0549 |
| GATATCAC | 0.0605 |
| CGCACCGA | 0.272 |
| ACAGTTCG | 0.0995 |
| AATTCGAC | -0.268 |
| CCGTTTCG | 0.202 |
| ACGCGTCG | 0.115 |
| CGATTTTC | 0.115 |
| CGCGTGTA | -0.0544 |
| TCTGTACA | 0.00856 |
| CCTAGTCC | 0.0326 |
| AGATCTGA | -0.24 |
| AAGGCGGG | 0.201 |
| CTCAGCCC | -0.0597 |
| GTCGCTCA | -0.256 |

| Sequence | PBM E-score |
| --- | --- |
| TCCATCCA | -0.254 |
| TCCTTCAA | -0.142 |
| ACGATGTG | -0.157 |
| CATTCTCC | -0.0874 |
| AGCTACGA | -0.16 |
| GATTGCAC | 0.0164 |
| CGAATTGA | -0.12 |
| TGTGAAAA | -0.163 |
| AAGGAACT | -0.0459 |
| ACATATAG | 0.0859 |
| CTCCACCC | -0.148 |
| GATAGATA | 0.0126 |
| GATCAGGA | -0.26 |
| ACAGGACT | -0.0874 |
| AAGATGGT | -0.135 |
| ACGTAAAG | -0.0611 |
| CCTCTGCG | -0.193 |
| AGTATTGA | -0.238 |
| AAACGACA | -0.183 |
| GCGAGAGA | -0.16 |
| CGTTAGAG | -0.00857 |
| ATGTGGTA | -0.222 |
| ACCTCCAC | 0.0725 |
| GAGGACAC | 0.0562 |
| ACTGATCT | -0.232 |

| Sequence | PBM E-score |
| --- | --- |
| ACATGCGA | -0.0766 |
| GCGGCAAC | 0.107 |
| GCTATCCA | -0.126 |
| TCGTCAGA | 0.0517 |
| GGCGAGGA | -0.212 |
| AGGATAGG | 0.0311 |
| GAGTTATA | 0.14 |
| CCCTTTTA | -0.2 |
| CGGACTAG | 0.195 |
| GCCATACC | 0.0141 |
| CATCGCCG | 0.264 |
| ACCCCTTC | -0.0875 |
| CCACCGGC | 0.322 |
| GATTTTGC | -0.18 |
| GCGACACC | 0.161 |
| CGTCTTTA | 0.0276 |
| CCCTTGCC | -0.194 |
| ATTCTTAA | -0.122 |
| CCGGGAAC | 0.199 |
| ATCGGGTC | 0.224 |
| CAGCACTC | -0.063 |
| GGACTGCC | -0.114 |
| ATTAGCAC | 0.114 |
| CCGACCGA | 0.314 |
| CTACCCCC | 0.169 |

| Sequence | PBM E-score |
| --- | --- |
| GAGCCGCA | -0.0194 |
| AGGTACCG | 0.284 |
| CGAATTGC | 0.0158 |
| GGACTATA | 0.256 |
| GAATCTGC | 0.0388 |
| TCGCGGAA | 0.0959 |
| AAGTAGCC | -0.125 |
| GACGTGGA | -0.0377 |
| GCGAATTA | 0.0761 |
| AGAGAGAC | -0.241 |
| AACATTTC | -0.226 |
| GAGCTTGC | -0.0925 |
| ACAATTGG | -0.222 |
| CCGACTCC | 0.314 |
| CTTGCGTC | -0.109 |
| TAAAAGGA | -0.149 |
| GGTAATCA | 0.216 |
| AGTTTACA | 0.00132 |
| AGCTACAG | -0.215 |
| AAATCCAT | -0.0752 |
| ATGTGAAT | -0.138 |
| CCAAGCGC | 0.129 |
| AAAGAAGC | 0.0555 |
| CCTCCTTC | -0.213 |
| ACAGCGCA | 0.118 |

| Sequence | PBM E-score |
| --- | --- |
| ATACGGAT | 0.174 |
| ATCCGGCG | 0.298 |
| AAGATGTA | -0.243 |
| CATAATTA | -0.125 |
| CTCCGAGC | 0.102 |
| ACGGGTTC | 0.0737 |
| ACCCTAAT | -0.303 |
| GGCTCTAC | 0.116 |
| TAAGACAA | 0.0611 |
| GCAACCAA | -0.0357 |
| CTTCCCAC | -0.0125 |
| ATCGACGG | 0.292 |
| TCAACGCA | -0.189 |
| GACCCTCC | -0.006 |
| AGAACTAA | 0.0894 |
| GGAACACC | 0.14 |
| GACGGTGA | 0.325 |
| CCATTCGA | -0.0555 |
| CGTAGAGC | -0.0725 |
